Results reported in PubChem BioAssay AID1645852 (National Center for Advancing Translational Sciences (NCATS), 2021).
The whole screen tested about 1,200 compounds, of which about 160 (13%) were called active. Inconclusive results, whose numbers are uncertain, are shown with a selection of clear calls. Calls come from the whole dose curve; as a rule, active = well fitted inhibition curve with a large enough effect; inconclusive = small, poorly fitted or top-dose-only effect; inactive = no such curve, though single readings can be large or run the other way. Potencies beside an inconclusive call are fits to weak or partial responses and may not hold up.

The compounds below were run against Inositol hexakisphosphate kinase 1 (Homo sapiens) (UniProt Q92551) (assay: Confirmatory qHTS assay for small molecule inhibitors of Inositol hexaphosphate kinase 1 (IP6K1)). Conditions: recombinant IP6K1 kinase, ADP-Glo luminescence, 2 h; series mostly up to 49 µM; activity change, negative = inhibition: at the top concentration.
Sequence of UniProt Q92551 (Q92551 whole entry, looked up): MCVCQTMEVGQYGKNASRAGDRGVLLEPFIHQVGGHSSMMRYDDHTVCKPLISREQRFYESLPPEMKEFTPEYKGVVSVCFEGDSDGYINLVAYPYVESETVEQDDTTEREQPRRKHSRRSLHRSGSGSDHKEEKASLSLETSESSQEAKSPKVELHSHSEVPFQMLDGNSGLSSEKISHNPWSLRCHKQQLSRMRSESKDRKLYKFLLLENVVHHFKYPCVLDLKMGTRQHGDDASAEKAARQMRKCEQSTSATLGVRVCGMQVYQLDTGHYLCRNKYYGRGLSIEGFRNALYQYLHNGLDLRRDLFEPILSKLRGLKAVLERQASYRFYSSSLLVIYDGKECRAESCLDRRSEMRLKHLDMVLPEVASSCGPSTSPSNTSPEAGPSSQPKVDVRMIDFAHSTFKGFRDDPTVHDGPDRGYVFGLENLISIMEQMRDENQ
Procedure, shortened: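 ADP-Glo Max, luminescent ADP readout. Premix of 1.3 mM ATP + 130 uM IP6 (dispensed conc.), compounds at several concentrations, 2 hr RT kinase reaction, then 1 hr depletion and 45 min detection steps, all at RT.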
% is set by controls: 0 for no effect and ±100 for the full control effect; potency is the fitted concentration of half-maximal effect; tags give direction and shape of the fitted curve.
Note: nearly all actives have a fitted effect of over 65% in size.

| SMILES | Potency | activity change, negative = inhibition |
| --- | --- | --- |
| N#Cc1c(O)c2c(-c3ccc(-c4ccccc4O)cc3)csc2[nH]c1=O | inconclusive: 13 µM [inhibitor, partial curve] |  |
| O=C(c1ccc2c(c1)OCO2)N1CCC2(CC1)C(=O)Nc1ccccc12 | inconclusive: 14.4 µM [inhibitor, partial curve] |  |
| COc1cccc(NC(=O)CSc2ncc(S(=O)(=O)c3ccc(C)c(C)c3)c(=O)[nH]2)c1 | inconclusive: 14.6 µM [inhibitor, partial curve] |  |
| CN1CCN(c2cc(=O)c3ccnc(-c4ccc(Cl)cc4)c3o2)CC1 | inconclusive: 37.5 µM [inhibitor, partial curve] |  |
| COC(=O)c1c(SCC(=O)Nc2cc(C)cc(C)c2)[nH]c2ccccc2c1=O | inconclusive: 1.03 µM [inhibitor, full curve] |  |
| N#Cc1ccc(-c2cnc3[nH]cc(NC(=O)c4cccnc4)c3c2)cc1 | inconclusive: 1.3 µM [inhibitor, full curve] |  |
| O=C(Nc1ccccc1Cl)c1cc(S(=O)(=O)N2CCC3(CC2)OCCO3)ccc1F | inconclusive: 23.1 µM [inhibitor, partial curve] |  |
| Cc1cc(Nc2nc(-c3ccccc3)nc3ccccc23)n[nH]1 | inconclusive: 23.1 µM [inhibitor, single point] |  |
| Brc1ccc2nc(SCCOc3ccccc3)[nH]c2c1 | inconclusive: 6.51 µM [inhibitor, partial curve] |  |
| CCOC(=O)c1cnc2ccc(Cl)cc2c1Nc1ccc(N2CCOCC2)cc1 |  | inactive: -12.8% |
| Cc1cccc(-c2nnc(SCCC(=O)O)o2)c1 | inconclusive: 13 µM [inhibitor, partial curve] |  |
| CCc1ccc(S(=O)(=O)c2cnc(SCC(=O)Nc3ccc(OC)cc3OC)[nH]c2=O)cc1 | inconclusive: 14.6 µM [inhibitor, partial curve] |  |
| CCOC(=O)c1cnc2c(C)cc(C)cc2c1Nc1cccc(C(=O)O)c1 | inconclusive: 20.6 µM [inhibitor, single point] |  |
| O=C(Nc1cccc(-c2ccc(N3CCOCC3)nn2)c1)Nc1ccccc1F | inconclusive: 16.4 µM [inhibitor, partial curve, poor fit] |  |
| COc1ccc(-c2nc3cc(C)ccn3c2NC(=O)c2ccc(F)cc2)cc1 | inconclusive: 25.9 µM [inhibitor, partial curve] |  |
| CCc1ocnc1C(=O)N1C[C@H]2OC(=O)N(CCCN3CCOCC3)[C@H]2C1 |  | inactive: -11.3% |
| CC(C)c1nc2ccc(C(=O)NCCCN3CCN(c4cccc(Cl)c4)CC3)cc2o1 | inconclusive: 20.6 µM [inhibitor, single point] |  |
| Cc1[nH]c(C=C2C(=O)Nc3ccc(S(=O)(=O)Cc4c(Cl)cccc4Cl)cc32)c(C)c1C(=O)N1CCC[C@H]1CN1CCCC1 |  | inactive: -11.5% |
| Cc1ccc(S(=O)(=O)c2[nH]c(-c3ccccc3)nc2SCC(=O)O)cc1 |  | inactive: -4.76% |
| CCN(CC)C(=S)SSC(=S)N(CC)CC | active: 8.91 µM |  |
| CCCc1nnc(NC(=O)c2nc(S(=O)(=O)Cc3ccc(C)cc3)ncc2Cl)s1 | inconclusive: 16.4 µM [inhibitor, partial curve] |  |

| SMILES | Potency | activity change, negative = inhibition |
| --- | --- | --- |
| Cc1noc(C)c1-c1cc2c(cc(-c3ccccc3)n2C)c(-c2ccnn2C)n1 | inconclusive: 13.3 µM [inhibitor, partial curve] |  |
| Cc1ccc(Cl)cc1NC(=O)c1oc2c(c1C)-c1[nH]ncc1CC2 | inconclusive: 14.6 µM [inhibitor, partial curve] |  |
| CCN(CC)c1ccc(C(=C2C=CC(=[N+](CC)CC)C=C2)c2cc(S(=O)(=O)O)ccc2S(=O)(=O)[O-])cc1 | inconclusive: 9.2 µM [inhibitor, partial curve, poor fit] |  |
| Nc1nc2c(s1)C(c1cccc(F)c1)CC(=O)N2 (configuration not stated) | inconclusive: 10.3 µM [inhibitor, partial curve] |  |
| O=C(O)c1ccc2c(c1)nc(Nc1cccc(Cl)c1)c1ccncc12 | inconclusive: 9.2 µM [inhibitor, partial curve] |  |
| O=C(Nc1cc2cc[nH]c2cn1)c1ccccc1 | inconclusive: 20.6 µM [inhibitor, partial curve] |  |
| NC(=O)Cc1c[nH]c2ncc(-c3cccc(C(F)(F)F)c3)cc12 | inconclusive: 21.1 µM [inhibitor, partial curve] |  |
| COc1ccc(-n2cc(-c3ccccc3)c3c(NC4CCCCC4)ncnc32)cc1 | inconclusive: 32.6 µM [inhibitor, partial curve, poor fit] |  |
| COc1cccc(CNC(=O)Nc2cccc(-c3ccc(N4CCOCC4)nn3)c2)c1 | inconclusive: 14.6 µM [inhibitor, partial curve, poor fit] |  |
| Cc1cccc(N2CCN(S(=O)(=O)c3csc(C(N)=O)c3)CC2)c1C | active: 7.31 µM |  |
| NC(=O)CSc1oc(-c2ccco2)nc1S(=O)(=O)c1ccc(Br)cc1 | inconclusive: 14.6 µM [inhibitor, partial curve, poor fit] |  |
| COc1ccc(NC(=O)CN2CCN(S(=O)(=O)c3ccc(Br)cc3)CC2)cc1 |  | inactive: -14.5% |
| COc1ccc(-c2nc3ncccc3[nH]2)cc1 | inconclusive: 28.2 µM [inhibitor, partial curve, poor fit] |  |
| Clc1ccccc1-c1nc(-c2ccncc2)no1 | inconclusive: 13 µM [inhibitor, partial curve, poor fit] |  |
| CC1CCN(c2ccc(-c3cccc(N)c3)nn2)CC1 | inconclusive: 16.4 µM [inhibitor, partial curve] |  |
| O=C(Nc1cccnc1)c1cc(-c2ccccc2F)cc2c1OCCN2Cc1cccnc1 | inconclusive: 10.6 µM [inhibitor, partial curve] |  |
| COc1cccc(N2C(=O)NC(=NC3CCCCC3)C23CCCN(CC2CCCCC2)C3)c1 (configuration not stated) | inconclusive: 14.6 µM [inhibitor, partial curve, poor fit] |  |
| O=c1c(S(=O)(=O)c2ccc(Cl)cc2)cn(Cc2ccc(F)cc2)c2ccc(F)cc12 | inconclusive: 14.6 µM [inhibitor, partial curve, poor fit] |  |
| CCCN1C(C(=O)c2ccccc2)=C(OC(=O)COc2ccccc2)c2ccccc2S1(=O)=O | inconclusive: 20.6 µM [inhibitor, partial curve, poor fit] |  |
| Cc1ccc(CNC(=O)CCc2c(C)nc3c(c(C)nn3-c3ccccc3)c2C)cc1 |  | inactive: -6.31% |
| O=c1cc(N2CCOCC2)oc2c(Nc3cccc(Cl)c3)nccc12 | inconclusive: 16.8 µM [inhibitor, partial curve] |  |

| SMILES | Potency | activity change, negative = inhibition |
| --- | --- | --- |
| O=C(O)c1cc(O)c2cccc(O)c2c1O[C@@H]1O[C@H](CO)[C@@H](O)[C@H](O)[C@H]1O | inconclusive: 12.8 µM [inhibitor, partial curve] |  |
| COc1ccccc1-c1cc(-c2cn[nH]c2)c2onc(C)c2n1 | inconclusive: 33.5 µM [inhibitor, single point] |  |
| C=CC(=O)Nc1cc(Nc2ncc(Cl)c(-c3c[nH]c4ccccc34)n2)c(OC)cc1N(C)CCN(C)C | inconclusive: 7.31 µM [inhibitor, partial curve, poor fit] |  |
| CSc1ccc(-c2ccc(C=O)cc2)cc1 | inconclusive: 7.94 µM [inhibitor, partial curve] |  |
| CNC(=O)c1cccc(-c2cnc3[nH]cc(CC(=O)N(C)c4ccccc4)c3c2)c1 | inconclusive: 33.5 µM [inhibitor, partial curve, poor fit] |  |
| O=C(NCc1nc(-c2cccc(F)c2)c(-c2ccccn2)[nH]1)[C@@H]1C[C@@H](O)CN1 |  | inactive: -6.94% |
| O=C(c1ccc(F)cc1)N1Cc2[nH]cnc2C[C@H]1c1nc(-c2ccc(Cl)cc2)no1 | inconclusive: 21.1 µM [inhibitor, partial curve] |  |
| Cc1cnc(Nc2ccc(F)cc2Cl)nc1-c1c[nH]c(C(=O)NC(CO)c2cccc(Cl)c2)c1 (configuration not stated) | active: 9.2 µM |  |
| CC(=O)Nc1cccc(-c2nc(-c3c(C)noc3C)cc3cc(C)oc23)c1 |  | inactive: -28.9% |
| Nc1cccc(-c2ccc(N3CCOCC3)nn2)c1 | inconclusive: 14.6 µM [inhibitor, partial curve] |  |
| CCOC(=O)c1ccc(NC(=O)Cc2ccc(-n3c(CC)nc4cccnc43)cc2)cc1 | inconclusive: 14.6 µM [inhibitor, partial curve] |  |
| CCC(=O)OCCCNc1nc(-c2ccc(Cl)cc2)nc2ccccc12 | inconclusive: 16.4 µM [inhibitor, single point] |  |
| Cc1cc2cc(C(=O)N(C)Cc3ccc4nsnc4c3)ccc2o1 | inconclusive: 20.6 µM [inhibitor, partial curve] |  |
| COc1ccc(CCNC(=O)CS(=O)Cc2nc(-c3ccc(C)cc3)oc2C)c(OC)c1 (configuration not stated) |  | inactive: -5.84% |
| Cc1cc(-c2cnc(N)c3c(-c4ccc5scnc5c4)csc23)n(C)n1 | inconclusive: 9.2 µM [inhibitor, partial curve] |  |
| Cc1ccc(F)cc1NC(=O)c1cc(-c2ccc[nH]2)n[nH]1 | inconclusive: 20.6 µM [inhibitor, partial curve] |  |
| Cc1ccc2c(n1)sc1c(=O)n(-c3cccc(C(F)(F)F)c3)nnc12 |  | inactive: -17.1% |
| O=C(Nc1cccc(C(F)(F)F)c1)Nc1cccs1 | inconclusive: 23.1 µM [inhibitor, partial curve] |  |
| Cn1nc(-c2ccccc2F)c2cc(C(=O)NCc3ccc(Cl)cc3)sc21 | inconclusive: 10.3 µM [inhibitor, partial curve, poor fit] |  |
| CCOC(=O)c1ccc(NC(=O)CC2C(=O)N(c3ccccc3)C(=O)N2Cc2ccc(C)cc2)cc1 (configuration not stated) | inconclusive: 16.4 µM [inhibitor, partial curve] |  |
